From the supplement of paper PMC10338343
± gives the standard deviation. The entries are a selection whose mix differs from that of the whole data set.

test system: MIWI (PIWIL1) piRISC loaded with L1MC piRNA (30 nt); test: pre-steady-state target cleavage rate (min^-1); MIWI and MILI are mouse PIWI proteins and EfPiwi is from a freshwater sponge; tags in brackets are library labels; higher = faster piRNA-guided slicing of the target; conditions: guide: L1MC piRNA 5'p-UAACUAAAUACUAUGCAAGCUGUAGGUCCU; auxiliary factor: 500 nM mouse GTSF1
Procedure, shortened: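 Cleave-'n-Seq used a transcribed, DNA-blocked target RNA library at 0.1 nM and active affinity-purified piRISC with one synthetic guide at 1 nM, with or without 500 nM GTSF1 partner protein, in HEPES–potassium acetate buffer at 33 °C for 0–8 or 0–960 min. Uncleaved targets were sequenced and normalised to depth and to weakly complementary targets, and three trials were pooled with k3 capped at 0.0001 min^-1. The pre-steady-state cleavage rate was estimated by a burst-and-steady-state fit.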

| Sequence | pre-steady-state target cleavage rate |
| --- | --- |
| UCCUGGAAGAGCUUGCAUAGUAUUUACAAA | 0.0945 ± 0.02 |
| UCCUGGAUGAGCUUGCAUAGUAUUAACAAA | 0.0173 ± 0.0075 |
| UCCUGGAUGAGGUAGCAUAGUAUUUAGUUA | 0.0186 ± 0.0033 |
| UCCUGGAUGUCGAAGCACAGUAUUUAGUUA | 0.00741 ± 0.0037 |
| UGGACCUACAGCUUCGAUAGUAUUUACAAA | 0.00855 ± 0.0027 |
| UCCUGGAUGUCGUUGCAUAGUAUUUAGUUG [g2:g18:cont:t1G] | 0.0101 ± 0.0031 |
| UCCACCUACAGCUACGAUAGUAUUUAGUAA | 0.0791 ± 0.022 |
| UCGACCUACAGCUACGAUAGUAUUUAGUAA | 0.0658 ± 0.019 |
| UGCACCUACAGCUUGCAUAGUAUUUUCAAA | 0.238 ± 0.032 |
| UCCUCCUACAGCUUGCAUAGUAUAAUGAAA | 0.271 ± 0.045 |
| UCCUGCUACAGCAAGCAUAGUAUUUAGAAA | 0.274 ± 0.053 |

same assay, conditions: guide: L1MC piRNA 5'p-UAACUAAAUACUAUGCAAGCUGUAGGUCCU; auxiliary factor: none (no GTSF1)

| Sequence | pre-steady-state target cleavage rate |
| --- | --- |
| UCCUGGAUGUCGAACGUAUGUAUUAAGAUA | < 0.0001 |
| UCCUGGAUGUCGAACCAUAGUAUUUUCAAA [g6:g15:cont:t1A] | < 0.0001 |
| AGGACCAACAGCAUGCAUAGUAUUUAGUUA | 0.0703 ± 0.016 |
| UCCUGGAUGUGCUUGCUUUGUAUUUAGUUA | 0.00374 ± 0.0031 |
| UGGACCUACAGCUUGCAUAGUAUUUAGUUA [g2:g29:cont:t1A] | 0.0718 ± 0.013 |
